Laboratory results taken from article PMC4336329 (PLoS ONE, 2015).
Out of some 310,000 compounds screened, about 2,200 (0.71%) showed an effect of 50% or more. The effect is printed as a negative number. The list shows a part of the results.

Target: human ether-à-go-go-related gene (hERG) potassium channel (human, UniProt Q12809)
Assay: primary screen, population patch clamp on CHO cells stably expressing hERG

Chain of human ether-à-go-go-related gene (hERG) potassium channel (Q12809 whole entry, looked up): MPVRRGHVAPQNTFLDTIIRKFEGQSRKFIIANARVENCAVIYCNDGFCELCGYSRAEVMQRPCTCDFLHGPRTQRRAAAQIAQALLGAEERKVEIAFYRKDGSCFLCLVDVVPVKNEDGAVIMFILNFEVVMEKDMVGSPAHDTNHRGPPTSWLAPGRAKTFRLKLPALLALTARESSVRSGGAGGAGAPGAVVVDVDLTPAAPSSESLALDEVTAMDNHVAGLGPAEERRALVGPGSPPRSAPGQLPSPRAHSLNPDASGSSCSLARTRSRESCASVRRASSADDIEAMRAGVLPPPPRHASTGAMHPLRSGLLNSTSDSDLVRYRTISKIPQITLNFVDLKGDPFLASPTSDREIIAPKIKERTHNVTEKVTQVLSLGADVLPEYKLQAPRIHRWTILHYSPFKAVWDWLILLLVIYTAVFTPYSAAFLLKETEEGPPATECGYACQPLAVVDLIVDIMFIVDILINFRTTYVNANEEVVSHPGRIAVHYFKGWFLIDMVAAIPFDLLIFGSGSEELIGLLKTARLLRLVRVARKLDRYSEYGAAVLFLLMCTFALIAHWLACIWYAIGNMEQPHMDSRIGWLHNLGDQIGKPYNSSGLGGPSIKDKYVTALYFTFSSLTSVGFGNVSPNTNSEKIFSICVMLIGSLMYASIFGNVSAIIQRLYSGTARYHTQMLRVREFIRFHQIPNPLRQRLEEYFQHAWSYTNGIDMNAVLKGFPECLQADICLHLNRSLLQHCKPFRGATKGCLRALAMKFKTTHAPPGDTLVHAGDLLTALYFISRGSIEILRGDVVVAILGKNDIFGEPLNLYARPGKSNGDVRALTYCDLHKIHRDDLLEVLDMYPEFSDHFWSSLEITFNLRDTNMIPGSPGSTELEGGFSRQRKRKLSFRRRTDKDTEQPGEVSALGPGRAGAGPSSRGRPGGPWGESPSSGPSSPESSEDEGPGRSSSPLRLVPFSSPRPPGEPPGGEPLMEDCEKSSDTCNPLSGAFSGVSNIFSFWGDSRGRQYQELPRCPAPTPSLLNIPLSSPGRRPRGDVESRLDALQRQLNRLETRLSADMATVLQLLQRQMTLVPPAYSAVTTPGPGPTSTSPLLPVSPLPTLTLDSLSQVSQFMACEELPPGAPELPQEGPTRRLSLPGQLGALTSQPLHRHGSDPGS

Q: `Cc1ccccc1NS(=O)(=O)c1ccc(C(=O)NCC(C)(C)N2CCOCC2)cc1` was tested. Which “hERG current change (%, negative = inhibition) at 1uM” value did it give?
A: 5.35%

Q: Which “hERG current change (%, negative = inhibition) at 1uM” value does the source give for `COc1ccc2c(C=O)cn(C)c2c1` here?
A: 15.5%

Q: With `CCN(CC)C(=O)CSc1nc2ccccc2c(=O)[nH]1` as the molecule, how does the “hERG current change (%, negative = inhibition) at 1uM” value read?
A: 7.12%

Q: `COc1cccc(CC2(CO)CCCN(Cc3cc(F)ccc3-n3cccn3)C2)c1` (stereo not drawn) was tested. Which “hERG current change (%, negative = inhibition) at 1uM” value did it give?
A: -85.1%

Q: For `Cc1n[nH]c(C)c1CCC(=O)N/N=C/C=C/c1ccccc1`, which “hERG current change (%, negative = inhibition) at 1uM” value is on record?
A: -10.3%

Q: For `O=[N+]([O-])c1ccc2c(c1)C(O)n1ncnc1S2` (stereo not drawn), which “hERG current change (%, negative = inhibition) at 1uM” value is on record?
A: 9.82%

Q: Which “hERG current change (%, negative = inhibition) at 1uM” value does the source give for `O=[N+]([O-])c1cccc(-c2c(-c3ccccc3)ncc3cc(F)ccc23)c1` here?
A: 8.37%

Q: For `COc1cc(CN2CCNC(=O)C2CC(=O)N(C)Cc2cccnc2)cc(OC)c1` (stereo not drawn), which “hERG current change (%, negative = inhibition) at 1uM” value is on record?
A: 8.67%

Q: How did the “hERG current change (%, negative = inhibition) at 1uM” value turn out when `COc1ccc(N2CCN(c3nc(C)c(C)c(=O)[nH]3)CC2)cc1` was run?
A: 14%

Q: For `COc1ccc(CCNC(=O)Cn2nnc(-c3ccc(OC)c(OC)c3)n2)cc1OC`, which “hERG current change (%, negative = inhibition) at 1uM” value is on record?
A: -0.964%

Q: Which “hERG current change (%, negative = inhibition) at 1uM” value does the source give for `C=C1CCC(N(O)c2cc(C)on2)C(=C)CCC2C1CC2(C)C` (stereo not drawn) here?
A: 11.2%

Q: With `CCOC(=O)CSc1nc(N(C)C)nc(N(C)C#N)n1` as the molecule, how does the “hERG current change (%, negative = inhibition) at 1uM” value read?
A: 3.15%

Q: For `Cc1nc(C)c(CC(=O)N/N=C/c2ccc(O)cc2)c(=O)[nH]1`, which “hERG current change (%, negative = inhibition) at 1uM” value is on record?
A: 11.3%

Q: For `O=C(NCc1ccco1)Nc1ccc([N+](=O)[O-])cc1`, which “hERG current change (%, negative = inhibition) at 1uM” value is on record?
A: -2.06%

Q: `OC(COc1ccc(CN2CCCCO2)cc1)CN1CCCCC1` (stereo not drawn) was tested. Which “hERG current change (%, negative = inhibition) at 1uM” value did it give?
A: 9.02%

Q: `CCOP(=O)(OCC)c1cc(CC)ccc1O` was tested. Which “hERG current change (%, negative = inhibition) at 1uM” value did it give?
A: 9.92%

Q: How did the “hERG current change (%, negative = inhibition) at 1uM” value turn out when `COc1ccc2oc(C)c(NC(C)=O)c2c1` was run?
A: 5.96%

Q: For `CCN=C1SC(C(=O)Nc2cccc(C)c2)CC(=O)N1CC` (stereo not drawn), which “hERG current change (%, negative = inhibition) at 1uM” value is on record?
A: -8.59%

Q: `COc1ccc(CCNC(=O)CSc2nc(N)c3c(C)c(C)oc3n2)cc1OC` was tested. Which “hERG current change (%, negative = inhibition) at 1uM” value did it give?
A: 11.9%

Q: With `O=C(NC(=S)Nc1ccccc1N1CCCC1)c1cccc(F)c1` as the molecule, how does the “hERG current change (%, negative = inhibition) at 1uM” value read?
A: -0.071%

Q: How did the “hERG current change (%, negative = inhibition) at 1uM” value turn out when `CCOC(=O)/C=C/c1ccc(C(F)(F)F)cc1S(=O)(=O)NC(C)(C)C` was run?
A: -0.159%

Q: With `O=C(NC1CCCCCC1)C1CCN(c2nc3ccccc3o2)CC1` as the molecule, how does the “hERG current change (%, negative = inhibition) at 1uM” value read?
A: 6.91%

Q: With `Cc1nnc(SCc2cc(=O)[nH]c(N3CCN(Cc4ccccc4)CC3)n2)s1` as the molecule, how does the “hERG current change (%, negative = inhibition) at 1uM” value read?
A: 4.26%

Q: With `Cc1cccc(C)c1NC(=O)C1CCCN1S(=O)(=O)c1ccc(-c2ccc(=O)[nH]n2)s1` (stereo not drawn) as the molecule, how does the “hERG current change (%, negative = inhibition) at 1uM” value read?
A: -30.7%

Q: For `COc1ccc(CCNC(=O)c2cnc(C)cn2)cc1`, which “hERG current change (%, negative = inhibition) at 1uM” value is on record?
A: 17%

Q: For `COc1cc(C(=O)Nc2ccc3nc(N4CCN(C)CC4)cc(C)c3c2)cc(OC)c1OC`, which “hERG current change (%, negative = inhibition) at 1uM” value is on record?
A: -5.28%

Q: For `CN(NC(=O)NN)c1ncc(C(F)(F)F)cc1Cl`, which “hERG current change (%, negative = inhibition) at 1uM” value is on record?
A: 1.54%

Q: With `Br.COc1ccc(OCC(=O)NN2Cc3ccccc3C2=N)cc1` as the molecule, how does the “hERG current change (%, negative = inhibition) at 1uM” value read?
A: 3.25%

Q: For `CCN(C(=O)COC(=O)CNS(=O)(=O)c1ccc(SC)c([N+](=O)[O-])c1)C1CCCCC1`, which “hERG current change (%, negative = inhibition) at 1uM” value is on record?
A: 15.5%

Q: For `O=Cc1ccc(OCc2nnsc2Cl)cc1`, which “hERG current change (%, negative = inhibition) at 1uM” value is on record?
A: 15.3%

Q: How did the “hERG current change (%, negative = inhibition) at 1uM” value turn out when `COc1ccc(C2(c3ccc(O)cc3O)CC(c3ccccc3Cl)NC(=S)N2)cc1` (stereo not drawn) was run?
A: 11.5%

Q: Which “hERG current change (%, negative = inhibition) at 1uM” value does the source give for `COc1ccccc1NC(=O)N1CCN(CCc2ccccc2)CC1` here?
A: 0.333%

Q: How did the “hERG current change (%, negative = inhibition) at 1uM” value turn out when `COc1ccc(OC)c(Nc2nc(N)c([N+](=O)[O-])c(NC3CCCCC3)n2)c1` was run?
A: 7.2%

Q: For `COc1ccc(C(=O)C[n+]2ccc(N)c(C)c2C)cc1.[Br-]`, which “hERG current change (%, negative = inhibition) at 1uM” value is on record?
A: 16.1%

Q: `COc1ccc(Cl)cc1C(=O)Nc1ccc(S(=O)(=O)N2CCCC2)cc1` was tested. Which “hERG current change (%, negative = inhibition) at 1uM” value did it give?
A: 17.4%

Q: With `CC(C)Oc1ccc(C2CC(=O)N(c3cccc(Br)c3)C2=O)cc1` (stereo not drawn) as the molecule, how does the “hERG current change (%, negative = inhibition) at 1uM” value read?
A: 19.5%

Q: `CCOC(=O)COc1ccc2c(=O)c(-c3ccccc3OC)coc2c1` was tested. Which “hERG current change (%, negative = inhibition) at 1uM” value did it give?
A: 14.9%

Q: For `Cc1cc(=O)n(C)c(=O)n1CCCNc1ccccc1.O=C(O)C(=O)O`, which “hERG current change (%, negative = inhibition) at 1uM” value is on record?
A: 0.128%

Q: How did the “hERG current change (%, negative = inhibition) at 1uM” value turn out when `COc1cc(CCCN2C(=O)C(=O)NC[C@H]2Cc2cccc3ccccc23)cc(OC)c1OC` was run?
A: 2.52%

Q: Which “hERG current change (%, negative = inhibition) at 1uM” value does the source give for `Cc1ccc(S(=O)(=O)N(c2nc(N(C)C)nc(N(C)C)n2)n2cnnc2)cc1` here?
A: 19.8%

Q: `Cc1ccccc1-c1nc(CN2CCC(C(=O)NC3CC3)CC2)c(C)o1` was tested. Which “hERG current change (%, negative = inhibition) at 1uM” value did it give?
A: 2.7%

Q: With `O=C(Nc1ccccc1Cl)NC1(C(=O)NCC2CCCO2)CCCCC1` (stereo not drawn) as the molecule, how does the “hERG current change (%, negative = inhibition) at 1uM” value read?
A: 15.9%

Q: With `CCOc1ccc(S(=O)(=O)n2ccc(C)n2)cc1` as the molecule, how does the “hERG current change (%, negative = inhibition) at 1uM” value read?
A: 6.03%

Q: `O=C1/C(=C\c2ccc(-c3ccccc3[N+](=O)[O-])o2)C(c2ccccc2)=NN1c1ccccc1` was tested. Which “hERG current change (%, negative = inhibition) at 1uM” value did it give?
A: 12.3%

Q: With `COC(=O)C(Sc1nc(C)cc(C)c1C#N)c1ccccc1` (stereo not drawn) as the molecule, how does the “hERG current change (%, negative = inhibition) at 1uM” value read?
A: 9.2%

Q: With `CCCCN1CNC(=S)N(c2ccccc2OCC)C1` as the molecule, how does the “hERG current change (%, negative = inhibition) at 1uM” value read?
A: 11.3%

Q: How did the “hERG current change (%, negative = inhibition) at 1uM” value turn out when `Cc1oc2c(c(=O)c1C)C(=O)CC(c1ccccc1)C2` (stereo not drawn) was run?
A: 4.78%

Q: Which “hERG current change (%, negative = inhibition) at 1uM” value does the source give for `CC(C)CC1NC(=O)N(CCCCN2C(=O)c3ccccc3C2=O)C1=O` (stereo not drawn) here?
A: 6.97%

Q: Which “hERG current change (%, negative = inhibition) at 1uM” value does the source give for `COc1ccccc1-n1cnnc1SCc1csc(-c2ccccc2)n1` here?
A: 8.32%

Q: `Cc1cccc(C)c1OCC(=O)Nn1c(C)nc2ccccc2c1=O` was tested. Which “hERG current change (%, negative = inhibition) at 1uM” value did it give?
A: -7.76%

Q: With `COc1cc(/C=N/NC(=O)C(NC(=O)c2ccccc2)c2n[nH]c(=O)c3ccccc23)ccc1OCC(N)=O` (stereo not drawn) as the molecule, how does the “hERG current change (%, negative = inhibition) at 1uM” value read?
A: 4.47%

Q: `CCN1CCN(C(=O)CS(=O)(=O)Cc2nc(-c3ccccc3C)oc2C)CC1` was tested. Which “hERG current change (%, negative = inhibition) at 1uM” value did it give?
A: 12.3%

Q: Which “hERG current change (%, negative = inhibition) at 1uM” value does the source give for `Cc1cccc2sc(NC(=O)CN(C)S(=O)(=O)c3ccc(Br)s3)nc12` here?
A: 9.84%

Q: For `O=C(Nc1ccc(NC(=O)c2ccccc2Cl)nc1)c1ccncc1`, which “hERG current change (%, negative = inhibition) at 1uM” value is on record?
A: 1.95%

Q: For `COCCCN1CN(S(=O)(=O)c2cccs2)c2nc3ccccc3nc21`, which “hERG current change (%, negative = inhibition) at 1uM” value is on record?
A: 3.93%

Q: How did the “hERG current change (%, negative = inhibition) at 1uM” value turn out when `O=C(/C=C/c1ccccc1)NC(=S)Nc1ccc(CN2CCOCC2)cc1` was run?
A: -9.68%

Q: `COc1cc(CO)cc(Br)c1OCC(=O)O` was tested. Which “hERG current change (%, negative = inhibition) at 1uM” value did it give?
A: 20.3%
